{
  "source": "the supplement of paper PMC7125110",
  "parents": {"B1": {"name": "glmS ribozyme (parent)", "chain": "AUAAAAGCGCCAGAACUACAGAAAUGUAGUUGACGAGGAGGAGGUUUAUCGAAUUUUCGGCGGAUGCCUCCAAA"}},
  "note": "± gives the standard error. This sample is rich in variants without activity.",
  "data": [
    {"variants_of": "B1", "assay": "self-cleavage kobs at 10000 uM GlcN6P; higher = faster cleavage; RNA array", "conditions": "with glucosamine-6-phosphate", "method_in_brief": "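Glucosamine-6-phosphate in HEPES/KCl/Mg(OAc)2 buffer, at 40 μM to 10 mM, was flowed over barcoded ribozyme variants transcribed in situ by E. coli RNA polymerase on sequenced MiSeq chips. Tracking was through a hybridised Cy3 probe at 37 °C. kobs, kcat and KM came from exponential decay fits and weighted Michaelis–Menten fits of normalised per-tile medians.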", "units": {"self-cleavage kobs at 10000 uM GlcN6P": "s⁻¹"}, "values": [
      {"variant": "AUAAAAGCGCCAGAACUACAGAAAUGUAGUUGACGAGGAGGAGGUUUAUCGAUUUUUCGGAGGAUGCCUCUAAA", "note": "[A53U C61A C71U]", "self-cleavage kobs at 10000 uM GlcN6P": "< 1e-05"},
      {"variant": "AUAAAAGCGCCAGAACUACAGAAAUGUAGUUGACGAGGAGGAGGUUUUUCGAAUUUUCGGCGGAUGCAUGCAAA", "note": "[A48U C68A C70G]", "self-cleavage kobs at 10000 uM GlcN6P": "< 1e-05"},
      {"variant": "AUAAAAGCGCCAGAACUACAGAAAUGUAGUUGACGAGCAGGAUGUUUAUCGAAUUUUCGGCGGAUACCUCCAAA", "note": "[G38C G43U G66A]", "self-cleavage kobs at 10000 uM GlcN6P": "< 1e-05"},
      {"variant": "AUAAAAGCGCCAGAACUACAGAAAUGUAGUUGACGAGGAGGACGUUUAUCCCAUUAUCGGCGGCUGCCUCCAAA", "note": "[G43C G51C A52C U56A A64C]", "self-cleavage kobs at 10000 uM GlcN6P": "< 1e-05"},
      {"variant": "AUAAAAGCGCCAGAACUACAGAAAUGUAGUUGACUAGGAGGAGGCUUAUCGAAUUUUCGGCGGAUGCCUGCAAA", "note": "[G35U U45C C70G]", "self-cleavage kobs at 10000 uM GlcN6P": "< 1e-05"},
      {"variant": "AUAAAAGCGCCAGAACUACAGAAAUGUAGUUGACGAAGAGGAGGUUUAUCGAAUUUUCGGCGCAUGCCUCGAAA", "note": "[G37A G63C C71G]", "self-cleavage kobs at 10000 uM GlcN6P": "< 1e-05"},
      {"variant": "AUAAAAGCGCCAGAACUACAGAAAUGUAGUUGACGAGGAGAAGGUUUAUUGAAUGUUCGGCGGAUGCCUCCAAA", "note": "[G41A C50U U55G]", "self-cleavage kobs at 10000 uM GlcN6P": "< 1e-05"},
      {"variant": "AUAAAAGCGCCAGAACUACAGAAAUGUAGUUGACGAGGAGGAGGUUUAUUGAAUUCUCGGCGGAUGGCUCCAAA", "note": "[C50U U56C C67G]", "self-cleavage kobs at 10000 uM GlcN6P": "< 1e-05"},
      {"variant": "AUAAAAGCGCCAGAACUACAGAAAUGUAGUUGACGAGAAGGAGGUUUAACGAAUUUUCGGCGGAUGCCUCUAAA", "note": "[G38A U49A C71U]", "self-cleavage kobs at 10000 uM GlcN6P": "< 1e-05"},
      {"variant": "AUAAAAGCGCCAGAACUACAGAAAUGUAGUUGACGAGGAAGAGGUUUAUAGAAUUAUCGGCGGAUGCCUCCAAA", "note": "[G40A C50A U56A]", "self-cleavage kobs at 10000 uM GlcN6P": "< 1e-05"},
      {"variant": "AUAAAAGCGCCAGAACUACAGAAAUGUAGUUGACGAGGAGGACGCUUAUCGAAUUUUCGGCGGAUGCCUCAAAA", "note": "[G43C U45C C71A]", "self-cleavage kobs at 10000 uM GlcN6P": "< 1e-05"},
      {"variant": "AUAAAAGCGCCAGAACUACAGAAAUGUAGUUGACGAGGAGGACGUUUAUGGAAUUUUCGGCGGAUGCCUCCAAA", "note": "[G43C C50G]", "self-cleavage kobs at 10000 uM GlcN6P": "< 1e-05"},
      {"variant": "AUAAAAGCGCCAGAACUACAGAAAUGUAGUUGUCUAGGAUGAGGUUUAUCGAAUUUUCGGCGGAUGCCUCCAAA", "note": "[A33U G35U G40U]", "self-cleavage kobs at 10000 uM GlcN6P": "< 1e-05"},
      {"variant": "AUAAAAGCGCCAGAACUACAGAAAUGUAGUUGACGAAGAGGAGGUUUAUCGAAUUUUGGGCGGAUGGCUCCAAA", "note": "[G37A C58G C67G]", "self-cleavage kobs at 10000 uM GlcN6P": "< 1e-05"},
      {"variant": "AUAAAAGCGCCAGAACUACAGAAAUGUAGUUGACGCGUAGGAGGUUCAUCCAAUUUUCGGCGGAUGCCUCCAAA", "note": "[A36C G38U U47C G51C]", "self-cleavage kobs at 10000 uM GlcN6P": "< 1e-05"},
      {"variant": "AUAAAAGCGCCAGAACUACAGAAAUGUAGUUGACGAGCAGGAGGUUUAUCGACUUUUCGGCGGGUGCCUCCAAA", "note": "[G38C A53C A64G]", "self-cleavage kobs at 10000 uM GlcN6P": "< 1e-05"},
      {"variant": "AUAAAAGCGCCAGAACUACAGAAAUGUAGUUGAGGAAGAGGAGGUUUAUCGAAUUUUCGGCCGUUGCCUCCAAA", "note": "[C34G G37A G62C A64U]", "self-cleavage kobs at 10000 uM GlcN6P": "< 1e-05"},
      {"variant": "AUAAAAGCGCCAGAACUACAGAAAUGUAGUUGACGAGGAAGAGGCUUAUCGAAUUUUCGGCGGAGGGCUCCAAA", "note": "[G40A U45C U65G C67G]", "self-cleavage kobs at 10000 uM GlcN6P": "0.00034 ± 0.00012"},
      {"variant": "AUAAAAGCGCCAGAACUACAGAAAUGUAGUUGACGAGGAGGAGUUUUAUCGAAUUUUCGGCCGAUGCUUCCAAA", "note": "[G44U G62C C68U]", "self-cleavage kobs at 10000 uM GlcN6P": "< 1e-05"},
      {"variant": "AUAAAAGCGCCAGAACUACAGAAAUGUAGUUGACGAGGAGGAGGUUUAUCUAAUUUUCGGGGGAGGCCUCCAAA", "note": "[G51U C61G U65G]", "self-cleavage kobs at 10000 uM GlcN6P": "< 1e-05"},
      {"variant": "AUAAAAGCGCCAGAACUACAGAAAUGUAGUUGACUAGGAAGAGCUUUAUCGAAUUUUCGGCGGAUGCCUCCAAA", "note": "[G35U G40A G44C]", "self-cleavage kobs at 10000 uM GlcN6P": "< 1e-05"},
      {"variant": "AUAAAAGCGCCAGAACUACAGAAAUGUAGUUGAAGCGGAGGAGGUUUAUCGAAUUUUCGGCGGAUUCCUCAAAA", "note": "[C34A A36C G66U C71A]", "self-cleavage kobs at 10000 uM GlcN6P": "< 1e-05"},
      {"variant": "AUAAAAGCGCCAGAACUACAGAAAUGUAGUUGACGACGAGGAGGAUUAUCGAACUUUCGGCGCAUGCCUCCAAA", "note": "[G37C U45A U54C G63C]", "self-cleavage kobs at 10000 uM GlcN6P": "< 1e-05"},
      {"variant": "AUAAAAGCGCCAGAACUACAGAAAUGUAGUUGACGAGGAGGAGGUUUAUCGGAUUUUCGGAGGAAGCCUCCAAA", "note": "[A52G C61A U65A]", "self-cleavage kobs at 10000 uM GlcN6P": "< 1e-05"},
      {"variant": "AUAAAAGCGCCAGAACUACAGAAAUGUAGUUGACGAGGAGGAGGUUUAUCGAAUUUUCAGCUGCUGCCUCCAAA", "note": "[G59A G62U A64C]", "self-cleavage kobs at 10000 uM GlcN6P": "< 1e-05"},
      {"variant": "AUAAAAGCGCCAGAACUACAGAAAUGUAGUUGACCAUGAGGAGGUUUAUCGAAUUUUCGGCGGAUGCGUCCAAA", "note": "[G35C G37U C68G]", "self-cleavage kobs at 10000 uM GlcN6P": "7.56e-05 ± 2.4e-05"},
      {"variant": "AUAAAAGCGCCAGAACUACAGAAAUGUAGUUGACUAGGAGGAGGUUUUUCGAAUUUUCGGCGGAUGCCGUCAAA", "note": "[G35U A48U U69G C70U]", "self-cleavage kobs at 10000 uM GlcN6P": "< 1e-05"},
      {"variant": "AUAAAAGCGCCAGAACUACAGAAAUGUAGUUGACGAGGAGGAGUUUUAUCGAAUUUUUGGCUGACGCCUCCAAA", "note": "[G44U C58U G62U U65C]", "self-cleavage kobs at 10000 uM GlcN6P": "< 1e-05"},
      {"variant": "AUAAAAGCGCCAGAACUACAGAAAUGUAGUUGACGAGGAGGAGAUUUAUCGAAUUUUCGGCCGAUCCCUCCAAA", "note": "[G44A G62C G66C]", "self-cleavage kobs at 10000 uM GlcN6P": "< 1e-05"},
      {"variant": "AUAAAAGCGCCAGAACUACAGAAAUGUAGUUGACGCGGAGUAGGUUUAUGGAAUUUUCGUGGGAUGCCUCCAAA", "note": "[A36C G41U C50G G60U C61G]", "self-cleavage kobs at 10000 uM GlcN6P": "< 1e-05"},
      {"variant": "AUAAAAGCGCCAGAACUACAGAAAUGUAGUUGACGAGGAGGAGAUUUAUCGAAUUUUUGGCCGAUGCCUCAAAA", "note": "[G44A C58U G62C C71A]", "self-cleavage kobs at 10000 uM GlcN6P": "< 1e-05"},
      {"variant": "AUAAAAGCGCCAGAACUACAGAAAUGUAGUUGACGAGUAAGAGGUUUAUCGAAUUUUCGGCGGAUGCAUCUAAA", "note": "[G38U G40A C68A C71U]", "self-cleavage kobs at 10000 uM GlcN6P": "< 1e-05"},
      {"variant": "AUAAAAGCGCCAGAACUACAGAAAUGUAGUUGAAGAGGCCGAGGUUUCUCGAAUUUUCGGCGGAUGCCUCCAAA", "note": "[C34A A39C G40C A48C]", "self-cleavage kobs at 10000 uM GlcN6P": "< 1e-05"},
      {"variant": "AUAAAAGCGCCAGAACUACAGAAAUGUAGUUGACGAGGAGGAGGUUUAUCGAGUUUGCGGCGGAUGGAUCCAAA", "note": "[A53G U57G C67G C68A]", "self-cleavage kobs at 10000 uM GlcN6P": "< 1e-05"},
      {"variant": "AUAAAAGCGCCAGAACUACAGAAAUGUAGUUGACGAGGAGGAGGGUUAUCGAAUUUUCAGCGGAUGCCUCCAAA", "note": "[U45G G59A]", "self-cleavage kobs at 10000 uM GlcN6P": "7.24e-05 ± 1.4e-05"},
      {"variant": "AUAAAAGCGCCAGAACUACAGAAAUGUAGUUGACGAGGACGAGGUUUAUCGAAUUUUCGGCGGAUCCUUCCAAA", "note": "[G40C G66C C68U]", "self-cleavage kobs at 10000 uM GlcN6P": "< 1e-05"},
      {"variant": "AUAAAAGCGCCAGAACUACAGAAAUGUAGUUGACGAGGAGUUGGUUUAUCGAAUCUUCGGCGGAUGCCUGCAAA", "note": "[G41U A42U U55C C70G]", "self-cleavage kobs at 10000 uM GlcN6P": "0.000238 ± 4.7e-05"}
    ]}
  ]
}
